Test results reported in paper PMC4336329 (PLoS ONE, 2015).
Hit rate of the full screen: of about 310,000 compounds, about 2,200 (0.71%) showed an effect of 50% or more. The effect is printed as a negative number. The list shows a part of the results.

The molecules below were run against human ether-à-go-go-related gene (hERG) potassium channel (human, UniProt Q12809) (assay: primary screen, population patch clamp on CHO cells stably expressing hERG).
Sequence of human ether-à-go-go-related gene (hERG) potassium channel (Q12809 whole entry, looked up): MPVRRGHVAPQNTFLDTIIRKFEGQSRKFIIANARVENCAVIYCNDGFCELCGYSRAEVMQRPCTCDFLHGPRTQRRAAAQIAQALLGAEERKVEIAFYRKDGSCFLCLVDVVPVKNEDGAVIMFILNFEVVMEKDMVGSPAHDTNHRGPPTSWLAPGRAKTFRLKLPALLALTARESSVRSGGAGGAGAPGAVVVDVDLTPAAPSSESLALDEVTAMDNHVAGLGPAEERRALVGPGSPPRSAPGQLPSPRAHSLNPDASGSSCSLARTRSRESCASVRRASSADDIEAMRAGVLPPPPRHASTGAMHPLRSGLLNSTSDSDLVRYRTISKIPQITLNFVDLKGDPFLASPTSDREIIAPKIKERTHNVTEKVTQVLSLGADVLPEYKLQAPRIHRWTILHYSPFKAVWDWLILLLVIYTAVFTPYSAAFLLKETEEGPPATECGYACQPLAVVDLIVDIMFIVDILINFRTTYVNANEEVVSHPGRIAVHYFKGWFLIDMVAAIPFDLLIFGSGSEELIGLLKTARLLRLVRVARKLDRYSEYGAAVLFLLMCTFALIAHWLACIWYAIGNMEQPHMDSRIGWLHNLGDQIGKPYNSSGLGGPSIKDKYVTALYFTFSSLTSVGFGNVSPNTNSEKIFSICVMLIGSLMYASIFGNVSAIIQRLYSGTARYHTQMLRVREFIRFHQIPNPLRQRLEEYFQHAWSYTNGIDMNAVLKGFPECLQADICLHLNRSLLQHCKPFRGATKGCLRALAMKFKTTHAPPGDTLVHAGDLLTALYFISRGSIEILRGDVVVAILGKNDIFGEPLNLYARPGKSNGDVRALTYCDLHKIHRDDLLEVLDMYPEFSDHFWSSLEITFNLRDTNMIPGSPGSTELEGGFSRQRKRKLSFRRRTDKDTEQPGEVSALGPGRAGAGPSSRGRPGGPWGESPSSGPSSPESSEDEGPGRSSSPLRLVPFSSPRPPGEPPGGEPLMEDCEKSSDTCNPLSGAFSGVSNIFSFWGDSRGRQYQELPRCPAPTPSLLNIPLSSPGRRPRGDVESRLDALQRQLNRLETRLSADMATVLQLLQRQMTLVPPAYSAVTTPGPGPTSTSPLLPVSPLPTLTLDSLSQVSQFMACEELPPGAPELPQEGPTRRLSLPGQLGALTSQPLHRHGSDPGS

| Compound | hERG current change (%, negative = inhibition) at 1uM |
| --- | --- |
| Cc1cc(NC(=O)C(C)Sc2nc(-c3ccccc3)cc(=O)[nH]2)no1 (centres unmarked) | 9.1% |
| Cc1cc(=O)oc2cc(Oc3ccc([N+](=O)[O-])cc3C(F)(F)F)ccc12 | 8.37% |
| NC(=O)c1ccsc1NC(=O)COC(=O)CNC(=O)c1ccc(F)cc1 | 5.75% |
| O=C(Nc1ccccc1)c1ccccc1C(=O)N1CCCCC1 | 10.6% |
| COc1ccc(C(CNC(=O)CCc2ccsc2)N(C)C)cc1 (centres unmarked) | 6.89% |
| CCCCn1c(N)c(N(CCOC)C(=O)c2ccc(Br)s2)c(=O)[nH]c1=O | -0.131% |
| S=C(N/N=C/c1ccc(Br)cc1)N1CCCCC1 | 10.9% |
| O=C(Cc1ccc(Cl)cc1)Nc1ccc(S(=O)(=O)N2CCOCC2)cc1 | 5.41% |
| O=C(OC(C(=O)NCc1ccc(F)cc1)c1ccccc1)c1ccco1 (centres unmarked) | 13.8% |
| O=C(c1ccc([N+](=O)[O-])cc1)N(Cc1ccc(Cl)cc1Cl)N1C(=O)CCCC1=O | 5.67% |
| Cc1ccc(-n2c(SCC(=O)N3CCOCC3)nnc2-c2ccncc2)cc1 | 13.9% |
| COc1ccc(CCNC(=O)c2cccc(Br)c2)cc1OC | 13.3% |
| Cc1onc(-c2c(Cl)cccc2Cl)c1C(=O)N1CCc2ccccc2C1 | 16.6% |
| O=C1[C@H]2CC3C=CC2(O3)[C@@H]2OCCCN12 (some centres unmarked) | 2.77% |
| CC1Cc2ccccc2N1CC(=O)NC(=O)NCc1ccco1 (centres unmarked) | 1.95% |
| CCOC(=O)CN(C(=O)CSc1nnc(CNc2ccc(F)cc2)n1C)c1ccccc1 | -9.59% |
| COc1ccccc1N1CCN(/N=C/c2c(C)nn(-c3ccccc3)c2C)CC1 | -7.38% |
| Cc1nc(SCCCSc2n[nH]c(C)n2)n[nH]1 | 14.2% |
| Cc1n[nH]c(C)c1CCOc1ccc(C(C)C)cc1.Cl | 4.9% |
| ON=Cc1cccn1-c1ccccc1 | 11.5% |
| CCCCC(=O)Nc1ccc(S(=O)(=O)Nc2nccc(C)n2)cc1 | 1.6% |
| COC(=O)c1ccc(C(=O)Nc2ccc(F)cc2)cc1 | 12.4% |
| CCCn1c(N)c(Sc2ccc(C)cc2)c(=O)n(CCC)c1=O | 8.23% |

| Compound | hERG current change (%, negative = inhibition) at 1uM |
| --- | --- |
| NC(=O)c1nsc(C(=O)N(CC(=O)NCc2ccc3c(c2)OCO3)C2CCCC2)c1N | 5.92% |
| CCc1ccc2nc(SCC(=O)Nc3ccccc3N3CCOCC3)c(C#N)cc2c1 | 6.75% |
| COc1ccc(N2CCN(c3cc(C)nc4ccc(OC)cc34)CC2)cc1 | -31% |
| CN(C)C(=O)c1c(NC(=O)c2ccco2)sc2c1CCCCC2 | 10% |
| CCCc1cc(=O)[nH]c(SCC(=O)NN(c2ccccc2)c2ccccc2)n1 | 7.17% |
| N#CC(c1ccccc1)c1cnccn1 (centres unmarked) | 4.76% |
| Cc1ccccc1OCCn1ccnc1 | 11.2% |
| COc1ccc2oc(C(=O)C3CC3)c(N)c2c1 | 1.2% |
| CCN(CC)CCn1c(=N)n(CC(O)COc2cccc(C)c2)c2ccccc21.Cl (centres unmarked) | -22.1% |
| COc1cc(NC(C)=O)ccc1NC(=O)c1cc2ccccc2o1 | 17.2% |
| COC(=O)c1c(C)oc2ccc(N(C(=O)c3ccncc3)S(=O)(=O)c3ccc4ccccc4c3)cc12 | 2.97% |
| NC(=O)C1CCN(C2=C(Cl)C(=O)c3ccccc3C2=O)CC1 | 14% |
| CCN(CC)S(=O)(=O)c1ccc(NN=C2CCN(C)CC2)c([N+](=O)[O-])c1 | 6.43% |
| COc1ccc(N=Cc2c(O)n(CC3CCCO3)c(=O)[nH]c2=O)cc1 (centres unmarked) | 8.42% |
| CCOc1ccccc1CNC(CC)CO.Cl (centres unmarked) | 13% |
| Cc1ccc(N/C=C2\CCCCC2=O)nc1 | 7.7% |
| CCC(=O)Nc1cccc(-c2nnc(SCC(=O)NCc3ccco3)n2C)c1 | 6.52% |
| Cc1ccn2nc(S(=O)(=O)Nc3c(F)cccc3F)nc2n1 | 11.7% |
| Cc1nc2ccccn2c1/C(O)=C1\C(=O)C(=O)N(CCCN(C)C)C1c1ccc(F)cc1 (centres unmarked) | 11.6% |
| CC(C)CC(c1nnnn1Cc1ccccc1)N1CCC(C(N)=O)CC1 (centres unmarked) | 16.5% |
| O=C(CCc1ccccc1)NC1CCSC1=O (centres unmarked) | 4.84% |
| O=C1CCC(CCC(=O)N2CCCC(C(=O)c3ccc(Cl)cc3)C2)=NN1 (centres unmarked) | 6.56% |
| O=[N+]([O-])c1ccccc1C1Nc2cccc3cccc(c23)N1 | 12.8% |

| Compound | hERG current change (%, negative = inhibition) at 1uM |
| --- | --- |
| CCOc1ccccc1N(C(=O)c1ccccc1Cl)C1=NC(C)(C)CS1 | -4.35% |
| O=C1CC(c2ccccc2)c2ccccc21 (centres unmarked) | 9.2% |
| CCC(C)NC(=O)Cn1c(=O)n(-c2ccc(OC)cc2)c(=O)c2ccc(C(=O)NCc3ccc(C)cc3)cc21 (centres unmarked) | 10.1% |
| CC(C)(C)c1cc(N2CCOCC2)n2ncc(-c3ccccc3)c2n1 | 19.2% |
| Cc1cc(C)nc(SCC(=O)Nc2ncc(Cc3cccc(Cl)c3)s2)n1 | 2.86% |
| Cc1ccc(-n2ncc3c(=O)n(CC#N)cnc32)cc1C | 8.35% |
| CCOC(=O)Nc1cc(C)ccc1OC | 14.8% |
| Nc1nc(OCC2CCCCC2)c2[nH]cnc2n1 | 3.32% |
| Cc1ccc(S(=O)(=O)n2c(CN3CCCC(C)C3)nc3ccccc32)cc1 (centres unmarked) | -7.85% |
| CN1C(=O)c2ccccc2OC1(C)Cc1ccccc1 (centres unmarked) | 17% |
| O=S(=O)(Nc1ccc(S(=O)(=O)N2CCCCCC2)cc1)c1cccs1 | 12.3% |
| CCc1cccc(N(C)C(N)=Nc2cccc3ccccc23)c1.Cl | 12.2% |
| CCN(Cc1ccccc1)C(c1ccc(C)cc1)c1nnnn1C(C)(C)CC (centres unmarked) | 10.4% |
| C=CCOc1cccc(C2c3c(oc4ccc(F)cc4c3=O)C(=O)N2CCCN2CCOCC2)c1 (centres unmarked) | -5.91% |
| CC(=O)Nc1ccc(S(=O)(=O)N2CCC(C(=O)NCCc3c[nH]c4ccccc34)CC2)cc1 | 7.8% |
| CCC(C)C(=O)Nc1nnc(-c2cccs2)s1 (centres unmarked) | 11.2% |
| CC(=O)c1ccc(N2CCN(C(=O)c3nn(C)c4c3CS(=O)(=O)c3ccccc3-4)CC2)cc1 | -41.9% |
| COc1cccc(NC(=O)c2oc3ccccc3c2NC(=O)C(C)(C)C)c1 | 2.12% |
| CC1CCCCN1Cc1nc2c(c(=O)n(C)c(=O)n2C)n1CCCc1ccccc1 (centres unmarked) | 4.06% |
| CC(=O)NC1=NN(C(C)=O)C(C)(c2ccco2)S1 (centres unmarked) | 5.66% |
| O=C(NC(=S)Nn1cnnc1)c1ccc(F)cc1Cl | 10.3% |
| Cc1cccc(NC(=O)CCS(=O)(=O)c2ccc3c(c2)oc(=O)n3C)c1 | 4.23% |
| Cc1ccccc1N(CC(=O)NCCSC1CCCCC1)S(=O)(=O)c1ccccc1 | 6.29% |

| Compound | hERG current change (%, negative = inhibition) at 1uM |
| --- | --- |
| Clc1ccc(-c2nc3ccncc3[nH]2)cc1 | 2.56% |
| C=CCNC(=O)C1CCN(S(=O)(=O)c2ccc3ccccc3c2)CC1 | 2.19% |
| COCCNC(=O)c1cc(C)ccc1C | 9.57% |
| CCN1CCCC1CN(Cc1cc2ccc(C)cc2[nH]c1=O)C(=S)Nc1ccccc1C(=O)OC (centres unmarked) | -42.2% |
| CCCCCC#CCN1CCN(C23CC4CC(CC(C4)C2)C3)CC1 | -15.9% |
| O=C(NCCC(=O)N1CCC2(CC1)NCCc1[nH]cnc12)c1cccc(Cl)c1 | 13.2% |
| COCC(C)n1c(SCc2cc(C(=O)OC)c(C)o2)nc2ccccc2c1=O (centres unmarked) | 4.87% |
| CC(=O)Nc1ccc(NC(=O)C(C)Sc2n[nH]c(-c3ccc(C)cc3)n2)cc1 (centres unmarked) | 8.42% |
| CCc1ccc(NC(=O)N(CCN2CCOCC2)C2CCN(C(C)=O)CC2)cc1 | 11.9% |
| CCc1ccc(CN(C)C(=O)C2CCC(=O)N(CC3CCCCC3)C2)cc1 (centres unmarked) | -12.3% |
| COc1ccc(C(=O)NCC(=O)N=Nc2c(O)n(C)c3ccccc23)cc1OC | 9.72% |
| CCC(C)(C(=O)NC1CCCCC1)N(C(=O)Cc1cccs1)c1ccccc1 (centres unmarked) | -1.77% |
| COc1ccc(/C=C/C(=O)OCCCN(C)C)cc1.Cl | -0.155% |
| COc1cc(C(=O)OCC(=O)Nc2cc(C)on2)cc(OC)c1OC | -8.38% |
| CCCc1ccc(C(=O)Cn2nc(C(=O)O)c3ccccc3c2=O)cc1 | 11.1% |
| C#CCNC(=O)C1=C[C@H](c2ccccc2)C[C@H](OCCCCO)O1 | 16.8% |
| Cc1nn2c3ccccc3nc2c2ccccc12 | -0.436% |
| N#Cc1ccccc1OCC(=O)NC(=O)NCc1ccccc1 | 2.35% |
| CN1C(=O)CC(NNC(=O)c2ccccc2)C1=O (centres unmarked) | 11.1% |
| CN(Cc1nc2ccccc2n1C)S(=O)(=O)c1ccc(Cl)cc1 | 9.67% |
| CCOC(=O)C(NC(C)=O)C(OC(C)=O)c1cccc(N(CCCl)CCCl)c1 (centres unmarked) | 9.46% |
| COc1ccc2c(c1OC)C(=O)OC2N1C(=O)CC[C@H]1C(=O)NCC1CCCO1 (some centres unmarked) | 11.9% |
| O=C1OC(c2ccccc2)C2(CCCC2)C(=O)C12CCCC2 (centres unmarked) | -0.322% |
